Test results from PubChem BioAssay AID504332 (National Center for Advancing Translational Sciences (NCATS), 2011).
About 31,000 (8.9%) of roughly 350,000 compounds were called active. This list was built around the results that the source calls inconclusive (neither active nor inactive); the mix of calls is not that of the screen. The call rests on the fitted dose curve; in most records, active means well fitted inhibition curve with a large enough effect; inconclusive means small, poorly fitted or top-dose-only effect; inactive means no such curve, though single readings can be large or run the other way. Where the call is inconclusive, the potency comes from a doubtful curve fit.

Molecular target: Histone-lysine N-methyltransferase EHMT2 (Homo sapiens) (UniProt Q96KQ7)
Assay: qHTS Assay for Inhibitors of Histone Lysine Methyltransferase G9a; further: nearly all actives have a fitted effect of over 75% in size
Settings: G9a H3K9 monomethylation, AlphaScreen, 2 h; activity, negative = inhibition: at 59 µM (top of the series) unless noted
In short: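 AlphaScreen read-out: biotin-H3K9 peptide (500 nM) methylation by 20 nM enzyme with 20 uM SAM, 2 h at room temperature after 15 min compound preincubation; anti-monomethyl H3K9 antibody plus donor/acceptor beads, 10 min dark.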
On the % scale 0 is the no-effect control and ±100 the full control effect; potency means the concentration at half of the fitted maximal effect; tags describe the fitted curve by direction and shape.

Chain of UniProt Q96KQ7 (Q96KQ7 whole entry, looked up): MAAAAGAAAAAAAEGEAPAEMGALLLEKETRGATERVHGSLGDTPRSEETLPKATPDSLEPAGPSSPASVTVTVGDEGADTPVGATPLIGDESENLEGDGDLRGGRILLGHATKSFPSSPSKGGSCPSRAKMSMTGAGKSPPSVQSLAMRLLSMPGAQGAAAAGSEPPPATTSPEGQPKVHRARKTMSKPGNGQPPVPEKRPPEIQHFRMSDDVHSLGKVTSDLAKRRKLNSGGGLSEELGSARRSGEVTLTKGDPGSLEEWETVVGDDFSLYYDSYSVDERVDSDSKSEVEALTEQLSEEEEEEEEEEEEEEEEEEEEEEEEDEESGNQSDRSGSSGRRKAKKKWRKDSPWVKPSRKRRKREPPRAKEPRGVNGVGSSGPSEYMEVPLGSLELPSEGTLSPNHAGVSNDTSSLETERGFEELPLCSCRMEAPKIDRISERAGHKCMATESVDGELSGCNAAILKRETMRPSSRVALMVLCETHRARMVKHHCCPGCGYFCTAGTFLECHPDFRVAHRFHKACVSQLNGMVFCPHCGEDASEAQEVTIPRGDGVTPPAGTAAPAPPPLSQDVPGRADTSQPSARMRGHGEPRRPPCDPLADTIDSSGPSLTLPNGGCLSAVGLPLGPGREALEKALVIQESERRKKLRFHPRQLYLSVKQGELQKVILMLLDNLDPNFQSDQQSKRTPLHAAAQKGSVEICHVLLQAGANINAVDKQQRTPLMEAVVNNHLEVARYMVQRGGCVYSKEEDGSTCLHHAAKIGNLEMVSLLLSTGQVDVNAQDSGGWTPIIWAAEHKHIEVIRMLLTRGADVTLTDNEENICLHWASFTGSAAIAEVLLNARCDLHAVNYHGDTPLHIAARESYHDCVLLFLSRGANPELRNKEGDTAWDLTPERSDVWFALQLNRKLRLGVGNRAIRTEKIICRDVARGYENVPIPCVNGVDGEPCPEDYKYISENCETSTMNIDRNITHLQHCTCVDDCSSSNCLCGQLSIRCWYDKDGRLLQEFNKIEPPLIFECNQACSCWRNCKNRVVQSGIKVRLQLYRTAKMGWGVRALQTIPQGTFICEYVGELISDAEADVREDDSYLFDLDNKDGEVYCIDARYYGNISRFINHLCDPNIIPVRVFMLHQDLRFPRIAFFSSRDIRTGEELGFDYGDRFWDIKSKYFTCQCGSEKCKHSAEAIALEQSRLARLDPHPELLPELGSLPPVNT

SMILES | Potency | activity, negative = inhibition
CCOC(=O)N1CCN(C(=O)C(=O)Nc2sc3c(c2C#N)CC(C)(C)OC3)CC1 | active: 12.6 µM | 
Cc1ccc(CCNC(=O)C2CCCN(S(=O)(=O)c3c(C)noc3C)C2)cc1 (stereo not drawn) | inconclusive: 89.1 µM [inhibitor, single point] | 
CCN1CCN(c2ncnc3c2cnn3-c2cc(Cl)ccc2C)CC1 | inconclusive: 22.4 µM [inhibitor, partial curve, poor fit] | 
CCCCOn1c(C)c(C(C)=O)c2c3no[n+]([O-])c3ccc21 | inconclusive: 22.4 µM [inhibitor, partial curve, poor fit] | 
COc1ccc(-n2nc(N)c(C(N)=O)n2)cc1 | active: 44.7 µM | 
Cc1ccn2cc(CCNS(=O)(=O)c3ccc4c(c3)CCCC4)nc2c1 | inconclusive: 79.4 µM [inhibitor, single point] | 
CCN(C(=O)CSc1nnnn1C)C1CCS(=O)(=O)C1 (stereo not drawn) | inconclusive: 89.1 µM [inhibitor, partial curve, poor fit] | 
Cc1ccc(N=C2NC(=O)/C(=C\c3ccco3)S2)cc1 | inconclusive: 35.5 µM [inhibitor, single point] | 
O=C(Cc1ccc(S(=O)(=O)N2CCOCC2)s1)Nc1ccc(S(=O)(=O)N2CCCCC2)cc1 | active: 44.7 µM | 
CCc1ccc(CN2CCN(S(=O)(=O)Cc3ccccc3)CC2)cc1 | inconclusive: 1 µM [inhibitor, single point] | 
Cc1cccc(Cl)c1NNC(=O)Nc1c([N+](=O)[O-])c(C)nn1C | active: 15.8 µM | 
CCc1nnc(NC(=O)CN2CCC(O)(c3ccccc3OC)CC2)s1 |  | inactive: -47.3% [at 102 µM]
Cc1cc(S(=O)(=O)N2CCOCC2)ccc1F |  | inactive: -1.78%
CC1=C(C(=O)OC(C)C)C(c2ccc(Cl)cc2)n2c(s/c(=C\c3ccc(OCC(=O)O)cc3)c2=O)=N1 (stereo not drawn) | inconclusive: 25.1 µM [inhibitor, single point] | 
CC1CC(C)CN(C(=O)CSc2nc3ccsc3c(=O)n2Cc2ccccn2)C1 (stereo not drawn) | inconclusive: 89.1 µM [inhibitor, partial curve, poor fit] | 
COc1cc(/C=C/C(=O)c2ccc(C)cc2)ccc1OCC#N | inconclusive: 28.2 µM [inhibitor, single point] | 
CCN1CCN(c2nc3c(c(=O)n(C)c(=O)n3C)n2Cc2cccc3ccccc23)CC1 | active: 39.8 µM | 
CC1(C)c2ccccc2N2CCC(=O)NC21/C=C/c1ccco1 (stereo not drawn) | active: 39.8 µM | 
Cc1cc2c(c(=O)n1Cc1ccc3c(c1)OCO3)C(c1cccnc1)C(C#N)=C(N)O2 (stereo not drawn) | inconclusive: 89.1 µM [inhibitor, single point] | 
CCc1ccc(OCC(=O)Nc2ccc(S(=O)(=O)Nc3cc(C)on3)cc2)c(Br)c1 | inconclusive: 89.1 µM [inhibitor, single point] | 
NS(=O)(=O)c1ccccc1 |  | inactive: -8.43% [at 102 µM]
Cc1nnsc1S(=O)(=O)Cc1ccccc1C(F)(F)F |  | inactive: -8.38% [at 12.7 µM]
COc1ccc(-c2nc(S(=O)(=O)c3ccc(C)cc3)c(N3CCCCC3)o2)cc1 | active: 3.55 µM | 

SMILES | Potency | activity, negative = inhibition
Cc1cc(-c2ccccc2)nc2c(Br)c(=O)[nH]n12 | inconclusive: 44.7 µM [inhibitor, partial curve] | 
Cc1nn(-c2ccccc2)c(Cl)c1C(=O)NCc1cccs1 | inconclusive: 5.62 µM [inhibitor, single point] | 
Cc1ccnc(NC(=O)CSc2nnc3c(n2)[nH]c2ccccc23)c1 | inconclusive: 70.8 µM [inhibitor, partial curve, poor fit] | 
O=C(Nc1nnc(-c2ccccc2)o1)c1cccc(N2C(=O)CCC2=O)c1 | inconclusive: 3.98 µM [inhibitor, partial curve, poor fit] | 
COc1cccc(N2CCN(c3ncnc4c3c(-c3ccccc3)cn4-c3ccc(F)cc3)CC2)c1 |  | inactive: -3.34%
Cc1ccc(NC(=O)CSc2nnc(-c3ccncc3)n2N)cc1C | inconclusive: 50.1 µM [inhibitor, partial curve, poor fit] | 
COc1ccc(CC(=O)Nc2ccc(S(=O)(=O)Nc3nc(C)cc(C)n3)cc2)cc1 | inconclusive: 39.8 µM [inhibitor, single point] | 
CC(NC(=O)/C=C/c1ccco1)c1nc2ccccc2n1Cc1c(Cl)cccc1Cl (stereo not drawn) |  | inactive: 7.59%
COc1ccc(NC(=O)C2CCCN(S(=O)(=O)c3cccc4nonc34)C2)cc1Cl (stereo not drawn) |  | inactive: -1.34%
CC(=O)c1cccc(NC(=O)Nc2cc3sccc3n2C)c1 | inconclusive: 31.6 µM [inhibitor, single point] | 
Cc1ccccc1NC(=O)CN1C(=O)NC2(CCCCCCC2)C1=O | inconclusive: 89.1 µM [inhibitor, partial curve, poor fit] | 
O=C(O)Cc1csc(-c2ccccc2)n1 | inconclusive: 50.1 µM [inhibitor, partial curve, poor fit] | 
CSc1ccc(C(=O)C2CCCN(Cc3cccn3-c3cccnc3)C2)cc1 (stereo not drawn) | inconclusive: 39.8 µM [inhibitor, single point] | 
CC(=O)c1ccc(NC(=O)C2CCCNC2=O)cc1 (stereo not drawn) |  | inactive: -2.49%
O=C(/C=C/c1cc(Br)ccc1O)c1ccco1 | inconclusive: 11.2 µM [inhibitor, partial curve, poor fit] | 
COC(=O)c1cc(COc2ccc3oc(C)c(C(=O)OC(C)C)c3c2)c(C)o1 |  | inactive: 74.3%
O=C(NCC(=O)N(CC1CCCO1)C(C(=O)NC1CCCCC1)c1ccccc1)c1ccco1 (stereo not drawn) |  | inactive: 10.7% [at 102 µM]
NCCCC[C@H](N)c1nnc([C@H](CC(=O)O)NC(=O)C2CCNCC2)o1 | inconclusive: 3.16 µM [inhibitor, single point] | 
CC1CCCN(S(=O)(=O)c2ccc(NC(=O)CN3CCCCC3)cc2)C1 (stereo not drawn) | active: 44.7 µM | 
CCn1c(=O)cc(OCC(=O)N2CCCC2)c2ccccc21 | inconclusive: 89.1 µM [inhibitor, single point] | 
CCN(C(=O)c1ccnn1C)c1ccccc1 | inconclusive: 25.1 µM [inhibitor, single point] | 
C=C(C)C(=O)Nc1cccc(C2=NOC3(C2)C[C@@H](C(N)=O)N(C(=O)c2cc([N+](=O)[O-])cc([N+](=O)[O-])c2C)C3)c1 (stereo partly drawn) | inconclusive: 12.6 µM [inhibitor, single point] | 
Cc1ccc2nc(NC(=O)Cn3cc4c(n3)CCCCC4)sc2c1 | inconclusive: 28.2 µM [inhibitor, single point] | 

SMILES | Potency | activity, negative = inhibition
CN(C)c1ccc(NC(=S)NCC2CCCO2)cc1 (stereo not drawn) | inconclusive: 28.2 µM [inhibitor, single point] | 
Fc1ccc2c(c1)C1OCCCC1C(c1ccccc1)N2 (stereo not drawn) | inconclusive: 89.1 µM [inhibitor, single point] | 
N#C/C(=C\c1ccc(-c2ccc(F)cc2)o1)C(=O)Nc1nc(-c2cccs2)cs1 |  | inactive: -4.59%
Cc1ccc(-c2ccc(/C=N/NC(N)=S)o2)cc1 | active: 8.91 µM | 
COCCn1nnnc1C(c1ccc(Cl)cc1)N1CCSCC1 (stereo not drawn) | active: 50.1 µM | 
COCCn1c(C)cc(C(=O)COC(=O)c2ccc(Cl)c(S(N)(=O)=O)c2)c1C | inconclusive: 63.1 µM [inhibitor, partial curve, poor fit] | 
NC(=O)C1CCCNC1 (stereo not drawn) | inconclusive: 31.6 µM [inhibitor, single point] | 
CN(C(=O)c1ccc(N2CCOCC2)c([N+](=O)[O-])c1)C1CCCCC1 |  | inactive: 19.2% [at 102 µM]
COc1ccc(Cl)cc1S(=O)(=O)NC(C)C(=O)NCCCn1ccnc1 (stereo not drawn) | inconclusive: 20 µM [inhibitor, partial curve, poor fit] | 
O=C(Cn1ccsc1=NC(=O)c1ccco1)c1ccccc1 | inconclusive: 79.4 µM [inhibitor, partial curve, poor fit] | 
COc1cccc(NC(=O)C2CCCN(S(=O)(=O)c3cccc4nsnc34)C2)c1 (stereo not drawn) | inconclusive: 79.4 µM [inhibitor, single point] | 
O=C(COC(=O)c1cccnc1Nc1cccc(C(F)(F)F)c1)NC1CCS(=O)(=O)C1 (stereo not drawn) | inconclusive: 79.4 µM [inhibitor, single point] | 
Cc1c(Cl)cccc1NC(=S)N(CCN(C)C)C(C)c1ccco1 (stereo not drawn) |  | inconclusive: -61.8% [inhibitor]
N/C(=N\c1nc2c(c(=O)[nH]1)CCC2)Nc1cccc2ccccc12 | inconclusive: 79.4 µM [inhibitor, single point] | 
CCCN(CCC)Cc1c(C(=O)N/N=C/c2ccc(C)o2)nnn1-c1nonc1N | inconclusive: 89.1 µM [inhibitor, single point] | 
COc1cc(-c2cc(C(=O)Nc3ccc(N4CCOCC4)cc3)c3ccccc3n2)cc(OC)c1OC | inconclusive: 50.1 µM [inhibitor, partial curve, poor fit] | 
CCn1c(CSc2nc3ccccc3s2)nnc1SCC(=O)c1ccc(O)cc1O | inconclusive: 3.16 µM [inhibitor, single point] | 
C/C(=N/NC(=O)c1ccc(Cl)s1)c1cccnc1 |  | inactive: 1.88% [at 102 µM]
O=C(C1CCC1)N1CCc2cc(S(=O)(=O)NCCc3ccccc3)ccc21 |  | inactive: -38.4%
C#CCOCCOCCOCCNc1nc(N2CCN(C(=O)[C@H](CCC(=O)O)n3cc(C(N)Cc4ccc(O)cc4)nn3)CC2)nc(N2CCN(C(=O)[C@H](CCC(=O)O)n3cc(C(N)[C@H](C)CC)nn3)CC2)n1 (stereo partly drawn) |  | inactive: -127%
COc1cccc(N2C(=O)C3CCCN3C2c2ccc(N(C)C)cc2)c1 (stereo not drawn) | inconclusive: 89.1 µM [inhibitor, single point] | 
COc1ccc(N(C(=O)/C=C/C(=O)Nc2cc(C)on2)C(C(=O)NC2CCCC2)c2ccccc2C)cc1 (stereo not drawn) |  | inactive: 19.3%
